The labels stand for the following.
T1: RBFOX1 RRM (Homo sapiens, UniProt Q9NWB1 109-208)
T1 sequence: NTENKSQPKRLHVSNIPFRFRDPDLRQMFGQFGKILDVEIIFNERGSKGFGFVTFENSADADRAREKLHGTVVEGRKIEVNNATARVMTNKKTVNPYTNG

B1: UAUGACG (DNA:RNA)
RNA: GGGAGACCGGAAUUCAGAUUGUCCUAUGACGUUAAAUCCCGUCGUAGCCACCA
DNA 1: CAATCTGAATTCCGGTCTCCC
DNA 2: TGGTGGCTACGACGGGATT
B2: UUAAGAC (DNA:RNA)
RNA: B1 RNA with A26U, U27A, G28A, A29G, C30A, G31C
DNA 1: CAATCTGAATTCCGGTCTCCC
DNA 2: TGGTGGCTACGACGGGATT
B3: UUAGGAU (DNA:RNA)
RNA: B1 RNA with A26U, U27A, A29G, C30A, G31U
DNA 1: CAATCTGAATTCCGGTCTCCC
DNA 2: TGGTGGCTACGACGGGATT
B4: AUGGAUG (DNA:RNA)
RNA: B1 RNA with U25A, A26U, U27G, C30U
DNA 1: CAATCTGAATTCCGGTCTCCC
DNA 2: TGGTGGCTACGACGGGATT
B5: CGCGUGG (DNA:RNA)
RNA: B1 RNA with U25C, A26G, U27C, A29U, C30G
DNA 1: CAATCTGAATTCCGGTCTCCC
DNA 2: TGGTGGCTACGACGGGATT
B6: GCCGUUU (DNA:RNA)
RNA: B1 RNA with U25G, A26C, U27C, A29U, C30U, G31U
DNA 1: CAATCTGAATTCCGGTCTCCC
DNA 2: TGGTGGCTACGACGGGATT
B7: GGGGAUU (DNA:RNA)
RNA: B1 RNA with U25G, A26G, U27G, C30U, G31U
DNA 1: CAATCTGAATTCCGGTCTCCC
DNA 2: TGGTGGCTACGACGGGATT
B8: UAAGUGC (DNA:RNA)
RNA: B1 RNA with U27A, A29U, C30G, G31C
DNA 1: CAATCTGAATTCCGGTCTCCC
DNA 2: TGGTGGCTACGACGGGATT
B9: ACGCUAU (DNA:RNA)
RNA: GGGAGACCGGAAUUCAGAUUGUCCACGCUAUUUAAAUCCCGUCGUAGCCACCA
DNA 1: CAATCTGAATTCCGGTCTCCC
DNA 2: TGGTGGCTACGACGGGATT
B10: CUUGAAC (DNA:RNA)
RNA: B1 RNA with U25C, A26U, C30A, G31C
DNA 1: CAATCTGAATTCCGGTCTCCC
DNA 2: TGGTGGCTACGACGGGATT
B11: UGUUAUA (DNA:RNA)
RNA: B1 RNA with A26G, G28U, C30U, G31A
DNA 1: CAATCTGAATTCCGGTCTCCC
DNA 2: TGGTGGCTACGACGGGATT
B12: CCGAAAC (DNA:RNA)
RNA: B9 RNA with A25C, C28A, U29A, U31C
DNA 1: CAATCTGAATTCCGGTCTCCC
DNA 2: TGGTGGCTACGACGGGATT
B13: GGACCUA (DNA:RNA)
RNA: B9 RNA with A25G, C26G, G27A, U29C, A30U, U31A
DNA 1: CAATCTGAATTCCGGTCTCCC
DNA 2: TGGTGGCTACGACGGGATT
B14: CGUCGCA (DNA:RNA)
RNA: B1 RNA with U25C, A26G, G28C, A29G, G31A
DNA 1: CAATCTGAATTCCGGTCTCCC
DNA 2: TGGTGGCTACGACGGGATT
B15: GAUCCGU (DNA:RNA)
RNA: B9 RNA with A25G, C26A, G27U, U29C, A30G
DNA 1: CAATCTGAATTCCGGTCTCCC
DNA 2: TGGTGGCTACGACGGGATT
B16: AGCCUAA (DNA:RNA)
RNA: B9 RNA with C26G, G27C, U31A
DNA 1: CAATCTGAATTCCGGTCTCCC
DNA 2: TGGTGGCTACGACGGGATT
B17: GGCGUGG (DNA:RNA)
RNA: B1 RNA with U25G, A26G, U27C, A29U, C30G
DNA 1: CAATCTGAATTCCGGTCTCCC
DNA 2: TGGTGGCTACGACGGGATT
B18: AACUCAC (DNA:RNA)
RNA: B9 RNA with C26A, G27C, C28U, U29C, U31C
DNA 1: CAATCTGAATTCCGGTCTCCC
DNA 2: TGGTGGCTACGACGGGATT
B19: CAUGUGU (DNA:RNA)
RNA: B1 RNA with U25C, A29U, C30G, G31U
DNA 1: CAATCTGAATTCCGGTCTCCC
DNA 2: TGGTGGCTACGACGGGATT
B20: CCCCUUC (DNA:RNA)
RNA: B9 RNA with A25C, G27C, A30U, U31C
DNA 1: CAATCTGAATTCCGGTCTCCC
DNA 2: TGGTGGCTACGACGGGATT
B21: UUUAGGA (DNA:RNA)
RNA: B1 RNA with A26U, G28A, A29G, C30G, G31A
DNA 1: CAATCTGAATTCCGGTCTCCC
DNA 2: TGGTGGCTACGACGGGATT
B22: CUGGCCU (DNA:RNA)
RNA: B9 RNA with A25C, C26U, C28G, U29C, A30C
DNA 1: CAATCTGAATTCCGGTCTCCC
DNA 2: TGGTGGCTACGACGGGATT
B23: AAAUUGC (DNA:RNA)
RNA: B9 RNA with C26A, G27A, C28U, A30G, U31C
DNA 1: CAATCTGAATTCCGGTCTCCC
DNA 2: TGGTGGCTACGACGGGATT
B24: AUAGUCG (DNA:RNA)
RNA: B1 RNA with U25A, A26U, U27A, A29U
DNA 1: CAATCTGAATTCCGGTCTCCC
DNA 2: TGGTGGCTACGACGGGATT
B25: AUGGCCC (DNA:RNA)
RNA: B9 RNA with C26U, C28G, U29C, A30C, U31C
DNA 1: CAATCTGAATTCCGGTCTCCC
DNA 2: TGGTGGCTACGACGGGATT
B26: UGUCCAA (DNA:RNA)
RNA: B9 RNA with A25U, C26G, G27U, U29C, U31A
DNA 1: CAATCTGAATTCCGGTCTCCC
DNA 2: TGGTGGCTACGACGGGATT
B27: UAGACCA (DNA:RNA)
RNA: B1 RNA with U27G, G28A, A29C, G31A
DNA 1: CAATCTGAATTCCGGTCTCCC
DNA 2: TGGTGGCTACGACGGGATT
B28: AUUCGUC (DNA:RNA)
RNA: B9 RNA with C26U, G27U, U29G, A30U, U31C
DNA 1: CAATCTGAATTCCGGTCTCCC
DNA 2: TGGTGGCTACGACGGGATT
B29: GUGACGA (DNA:RNA)
RNA: B9 RNA with A25G, C26U, C28A, U29C, A30G, U31A
DNA 1: CAATCTGAATTCCGGTCTCCC
DNA 2: TGGTGGCTACGACGGGATT
B30: GUUAACA (DNA:RNA)
RNA: B1 RNA with U25G, A26U, G28A, G31A
DNA 1: CAATCTGAATTCCGGTCTCCC
DNA 2: TGGTGGCTACGACGGGATT
B31: UGAUUUC (DNA:RNA)
RNA: B9 RNA with A25U, C26G, G27A, C28U, A30U, U31C
DNA 1: CAATCTGAATTCCGGTCTCCC
DNA 2: TGGTGGCTACGACGGGATT

The text below walks through data of paper PMC9911399, “Two distinct binding modes provide the RNA-binding protein RbFox with extraordinary sequence specificity”.

Where a chain is given by its changes, count along the chain named. Some of the results follow.

The target of this test is T1, RBFOX1 RRM. Nature of the test: EMSA; HiTS-Eq, 1 nM pool, 10 min; buffer printed only for the single-RNA assays: 10 mM Tris pH 7.5, 150 mM NaCl, 3.4 mM EDTA, 0.001% NP-40, 30 C. Conditions: tags: His6 N-terminal (pET28a); label: 5' 32P. Put shortly:
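Relative association constants, normalised to the cognate motif, were derived by comparing read counts of each RNA species with those of the control reaction. The RNA sequenced was the free fraction, separated by 8% native PAGE after a 10 min equilibration in 50 µL of 1 nM 5′-radiolabelled RNA (7 randomized nucleotides) with increasing concentrations of purified wild-type or mutant RbFox RRM.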
For the molecule B1, the binding signal was 0.0056 KA relative to UGCAUGU.

As to B2, the binding signal is 0.00837 KA relative to UGCAUGU.

Turning to B3, the binding signal is 0.00616 KA relative to UGCAUGU.

For B4, the binding signal is 0.0216 KA relative to UGCAUGU.

As to B5, the binding signal was 0.00951 KA relative to UGCAUGU.

As for B6, the binding signal was 0.0136 KA relative to UGCAUGU.

For the molecule B7, the binding signal was 0.038 KA relative to UGCAUGU.

For the molecule B8, the binding signal was 0.0197 KA relative to UGCAUGU.

With B9, the binding signal is 0.00415 KA relative to UGCAUGU.

Consider B10, for which the binding signal is 0.0099 KA relative to UGCAUGU.

For the molecule B11, the binding signal was 0.00576 KA relative to UGCAUGU.

For B12, the binding signal is 0.00527 KA relative to UGCAUGU.

Take B13: the binding signal is 0.0035 KA relative to UGCAUGU.

Turning to B14, the binding signal was 0.00976 KA relative to UGCAUGU.

In the case of B15, the binding signal was 0.0111 KA relative to UGCAUGU.

In the case of B16, the binding signal was 0.00191 KA relative to UGCAUGU.

Regarding B17, the binding signal was 0.02 KA relative to UGCAUGU.

With B18, the binding signal was 0.00215 KA relative to UGCAUGU.

Take B19: the binding signal was 0.0132 KA relative to UGCAUGU.

As to B20, the binding signal was 0.00251 KA relative to UGCAUGU.

B21: the binding signal is 0.00404 KA relative to UGCAUGU.

With B22, the binding signal is 0.0207 KA relative to UGCAUGU.

As for B23, the binding signal was 0.00989 KA relative to UGCAUGU.

As for B24, the binding signal was 0.0114 KA relative to UGCAUGU.

As for B25, the binding signal was 0.00745 KA relative to UGCAUGU.

In the case of B26, the binding signal is 0.00625 KA relative to UGCAUGU.

Turning to B27, the binding signal is 0.00812 KA relative to UGCAUGU.

For the molecule B28, the binding signal is 0.00869 KA relative to UGCAUGU.

With B29, the binding signal was 0.0199 KA relative to UGCAUGU.

In the case of B30, the binding signal was 0.00289 KA relative to UGCAUGU.

Regarding B31, the binding signal is 0.0164 KA relative to UGCAUGU.
